Data: paper PMC4336329 (PLoS ONE, 2015)
Hit rate of the full screen: of about 310,000 compounds, about 2,200 (0.71%) showed an effect of 50% or more. The effect is printed as a negative number. Some of the results follow.

Each compound was assayed against human ether-à-go-go-related gene (hERG) potassium channel (human, UniProt Q12809) (assay: primary screen, population patch clamp on CHO cells stably expressing hERG).
human ether-à-go-go-related gene (hERG) potassium channel, sequence (Q12809 whole entry, looked up): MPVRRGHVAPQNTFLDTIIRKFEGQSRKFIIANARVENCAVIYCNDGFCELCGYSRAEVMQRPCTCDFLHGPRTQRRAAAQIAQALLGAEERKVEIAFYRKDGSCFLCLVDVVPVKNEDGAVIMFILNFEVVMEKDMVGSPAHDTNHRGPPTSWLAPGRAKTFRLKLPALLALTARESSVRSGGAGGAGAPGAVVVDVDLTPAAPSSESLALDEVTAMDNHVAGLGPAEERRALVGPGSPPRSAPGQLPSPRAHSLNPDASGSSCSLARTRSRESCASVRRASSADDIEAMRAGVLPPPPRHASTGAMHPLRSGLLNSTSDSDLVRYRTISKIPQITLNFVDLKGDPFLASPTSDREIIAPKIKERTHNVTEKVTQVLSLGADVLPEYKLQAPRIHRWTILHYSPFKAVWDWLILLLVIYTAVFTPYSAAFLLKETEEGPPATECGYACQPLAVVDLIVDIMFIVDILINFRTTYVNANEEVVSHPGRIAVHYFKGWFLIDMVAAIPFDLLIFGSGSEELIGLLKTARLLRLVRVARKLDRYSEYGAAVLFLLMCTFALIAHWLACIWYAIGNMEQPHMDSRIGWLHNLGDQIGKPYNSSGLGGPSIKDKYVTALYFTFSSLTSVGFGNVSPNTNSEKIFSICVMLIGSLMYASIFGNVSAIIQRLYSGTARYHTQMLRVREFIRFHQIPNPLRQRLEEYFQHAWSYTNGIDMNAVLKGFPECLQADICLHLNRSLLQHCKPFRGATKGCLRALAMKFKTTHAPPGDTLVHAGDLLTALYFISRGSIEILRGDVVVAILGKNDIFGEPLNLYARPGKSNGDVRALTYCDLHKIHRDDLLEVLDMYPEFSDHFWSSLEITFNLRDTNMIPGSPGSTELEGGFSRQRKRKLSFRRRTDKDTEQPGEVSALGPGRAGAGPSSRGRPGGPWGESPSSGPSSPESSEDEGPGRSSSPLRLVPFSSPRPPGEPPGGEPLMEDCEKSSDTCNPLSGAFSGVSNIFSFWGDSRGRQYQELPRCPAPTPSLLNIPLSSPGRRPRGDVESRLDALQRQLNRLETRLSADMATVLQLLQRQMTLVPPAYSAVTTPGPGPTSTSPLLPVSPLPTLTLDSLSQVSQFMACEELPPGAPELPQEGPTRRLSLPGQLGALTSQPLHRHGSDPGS

| Compound | hERG current change (%, negative = inhibition) at 1uM [%] |
| --- | --- |
| CN(CC1CCCO1)S(=O)(=O)c1ccc(C(=O)Nc2nccs2)cc1 (centres unmarked) | 0.708 |
| CC(NC(=O)C1CC1)C(c1cccs1)N1CCN(c2ccccc2)CC1 (centres unmarked) | 11.8 |
| COC(=O)[C@H](Cc1c[nH]c2ccccc12)NC(=O)NCc1ccccc1 | 10.8 |
| CCOc1ccc(N(CC(=O)Nc2ccc3c(c2)OCCO3)S(=O)(=O)c2c(C)noc2C)cc1 | 17 |
| CC(=O)NCCc1nc2cc(NC(=O)c3cccs3)ccc2n1C | 9.61 |
| CC(C)=C1C2CCC1C1C(=O)N(c3nc(-c4ccc(C(C)C)cc4)c(C)s3)C(=O)C21 (centres unmarked) | -6.97 |
| COc1ccc(-c2noc(N3CCC(C(=O)Nc4ccc(OC)cc4OC)CC3)n2)cc1 | 0.99 |
| CCn1nc(C(=O)Nc2nc3ccc(C)cc3s2)c2ccccc2c1=O | 6.16 |
| Cc1ccccc1NC(=O)Cc1nc(COC(=O)c2ccc(S(C)(=O)=O)c([N+](=O)[O-])c2)cs1 | 4.02 |
| CCC1=C(C)C(N2CCOCC2)=NP(N2CCOCC2)(N2CCOCC2)=N1 | 9.68 |
| CCN1CCN(C(=O)C2CCCN(S(=O)(=O)c3cc(Cl)ccc3Cl)C2)CC1 (centres unmarked) | 3.07 |
| CC1(C(=O)O)CCC(C(=O)Nc2cccc(F)c2)C1(C)C (centres unmarked) | 2.32 |
| COc1ccccc1Oc1coc2c(CN3CCOCC3)c(O)ccc2c1=O | 3.02 |
| O=C(c1ccc2c(=O)n(CC3CCCO3)c(=S)[nH]c2c1)N1CCN(c2ccccc2)CC1 (centres unmarked) | 3.81 |
| O=C(Nc1ccc(N2CCOCC2)cc1)C1CCCCC1 | 7.01 |
| N#Cc1ccc(S(=O)(=O)NC2CCN(Cc3ccccc3)CC2)cc1 | -5.66 |
| Nc1nccnc1C(=O)OCC(=O)C12CC3CC(CC(C3)C1)C2 | -0.801 |
| Cc1cc(C)c(S(=O)(=O)NCc2ccncc2)c(C)c1 | 5.64 |
| COc1ccc(OC)c(CN2CCN(S(=O)(=O)c3ccccc3)CC2)c1 | 10.6 |

| Compound | hERG current change (%, negative = inhibition) at 1uM [%] |
| --- | --- |
| COc1ccc(Cn2c(N)c(C(=O)NCc3ccco3)c3nc4ccccc4nc32)cc1OC | 5.43 |
| Cc1ncc([N+](=O)[O-])n1CCOC(=O)c1ccc(Cl)cc1Cl | -4.3 |
| NC(=O)C1CCCN(Cc2ccc(Cl)cc2)C1 (centres unmarked) | 8.74 |
| CC1(C)Cc2c(c(N3CCCC3)nc3sc4c(N5CCNCC5)ncnc4c23)CO1 | 7.71 |
| COc1ccc(NC(=O)c2noc(C(C)C)c2[N+](=O)[O-])cc1 | 13.6 |
| O=C(O)c1ccc(Cl)cc1Nc1nc2cc(Cl)ccc2o1 | 17.4 |
| CC(C)(C)CC(=O)Nc1nnc(SCC(=O)N2CCCCC2)s1 | 13.9 |
| Cc1ccc(NC(=O)CSc2nnnn2C)cc1S(=O)(=O)N(C)C | 6.72 |
| CCC(C)(C)C1CCC(NC(=O)c2ccc(S(=O)(=O)N3CCOCC3)cc2)CC1 (centres unmarked) | 9.12 |
| COc1ccc(-n2nc(C(=O)N3CCC(N4CCCCC4)CC3)c3c4ccccc4n(C)c3c2=O)cc1 | 14 |
| COCCNC(=O)C(c1ccc(O)cc1)N(Cc1ccco1)C(=O)CCC(=O)Nc1ccccn1 (centres unmarked) | 17.3 |
| O=C(COC(=O)CCC(=O)c1cccs1)NCc1ccc(Cl)cc1 | 7.78 |
| O=C(CSc1nccn1Cc1ccc(F)cc1)NC1CCCC1 | 9 |
| COc1ccc(OC)c(NC(=O)CSc2nccn2Cc2ccco2)c1 | 11.9 |
| CN1CCN(C(=O)/C=C\C(=O)O)CC1 | 3.44 |
| C=CCSc1nc(Cc2ccc(Cl)cc2)nc2ccccc12 | 4.6 |
| CC(C)n1nnnc1SCC(=O)N1CCN(C(=O)c2ccco2)CC1 | 7.08 |
| O=C(NC(=S)N1CCN(CCO)CC1)C12CC3CC(CC(C3)C1)C2 | 8.73 |
| Cc1ccc(-c2[nH]c3cc(C(=O)NCCCn4ccnc4)ccc3c(=O)c2O)cc1 | 11.2 |

| Compound | hERG current change (%, negative = inhibition) at 1uM [%] |
| --- | --- |
| CCOC(=O)C(NCc1ccc2c(c1)OCO2)(NC(=O)CC)C(F)(F)F (centres unmarked) | 9.65 |
| CCCCc1nc2cc(C(=O)N3CCC(OCCOC)CC3)ccc2o1 | -1.54 |
| Cc1ccc(C2=NS(=O)(=O)N(C)C(C(=O)NC3CCCC3)=C2)cc1 | 1.97 |
| COc1cc(/C=N/NC(=O)CC(=O)NC2CCCCC2)ccc1O | 16.9 |
| Cc1ccc(N2C(=O)CC(N3CCSCC3)C2=O)c(C)c1 (centres unmarked) | 10.5 |
| Cc1cc(C)n(-c2ccc(C(=O)Nc3ccc4c(c3)OCCO4)cc2)n1 | -1.22 |
| Cc1ccc([N+](=O)[O-])cc1NC(=O)CSc1nncc2ccccc12 | 6.99 |
| N/C(=N\OC(=O)Nc1ccccc1)c1cccc(C(F)(F)F)c1 | 21.4 |
| COc1ccc(C(=O)Nc2ccc(S(=O)(=O)N3CCCCC3)cc2)cc1OC | -0.152 |
| O=C(O)Cc1sc(Nc2ccccc2)nc1-c1cccs1 | 16.4 |
| CCOc1ccc(C(c2c(O)nc(SC)n(C)c2=O)c2c(O)nc(SC)n(C)c2=O)cc1 | 8.22 |
| CC(=O)c1ccc(S(=O)(=O)NC2CC(=O)N(c3ccc4c(c3)OCCO4)C2)cc1 (centres unmarked) | 13.3 |
| Cc1csc(NC(=O)CCC(=O)N(CC(=O)NC2CCCC2)c2ccccc2)n1 | 9.57 |
| CCc1ccc(S(=O)(=O)NC2CCCCNC2=O)cc1 (centres unmarked) | 13 |
| CCc1ccc(N(CC(=O)Nc2ccccc2C(=O)N2CCOCC2)S(C)(=O)=O)cc1 | 8.28 |
| Cc1ccc(CONC(=O)c2ccc(OC(F)F)cc2)cc1 | 9.48 |
| O=C(Nc1ccc(F)cc1)C1CCCN(S(=O)(=O)c2cccc3cccnc23)C1 (centres unmarked) | -3.05 |
| Cc1ccc(NC(=O)CN2CCCCCC2)cc1[N+](=O)[O-] | 8.37 |
